Screen size: about 410,000 compounds; about 1,200 (0.29%) were called active. The shares of active, inactive and inconclusive entries below differ from those in the screen. Calls follow the shape of the dose curve; as a rule, active = well fitted activation curve with a large enough effect; inconclusive = small, poorly fitted or top-dose-only effect; inactive = flat fitted curve, though single readings scatter. A potency beside an inconclusive call is a rough fit, not a confirmed value.
Assay: qHTS of Nrf2 Activators; also: nearly all actives have a fitted effect of over 65% in size
Details: AREc32 ARE-luciferase reporter (MCF7-derived line), luminescence, 24 h; series mostly up to 46.1 µM
Summary of the method: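 AREc32_Fluc, 1000 cells/well, OPTI-MEM + 5% FBS, o/n 37 deg C 5% CO2; 23 nL cpd by pin tool, 24 hr; Steady-Glo 30 min RT, luminescence.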
In the case of `CC1(C)OC2OC(C(=O)N/N=C/c3ccccc3F)C3OC(C)(C)OC3C2O1` (stereo not given), the Potency is reported as “inactive”.
For `Cc1cccc(C(=O)NC(=S)NNC(=O)c2ccccc2Cl)c1`, the Potency was “inactive”.
In the case of `CCN1CCOC(=O)C1CC(=O)Nc1cc(Cl)ccc1OC` (stereo not given), the Potency is reported as “inactive”.
In the case of `C/C(=N\NC(=O)c1cccc(Br)c1)c1ccccn1`, the Potency is reported as inconclusive: 5.01 µM [activator, full curve].
For `C[C@@H]1[C@@H](Sc2ccccc2)CC(=O)O[C@@H]1c1ccc(-c2ccccc2)cc1`, the Potency was inconclusive: 3.55 µM [activator, single point].
For `c1ccc(-c2ccc(-c3ccccc3)[nH]2)cc1`, the Potency was inconclusive: 3.55 µM [activator, single point].
With `Cc1ccccc1C(=O)Nc1ccc(C(=O)OCc2cc(=O)n3c4c(sc3n2)CCCC4)cc1` the Potency was “inactive”.
In the case of `Cc1cccc(-c2noc(-c3ccccc3C(=O)NCc3ccco3)n2)c1`, the Potency is reported as inconclusive: 5.01 µM [activator, partial curve].
In the case of `O=C(O)c1ccc(NC(=S)Nc2ccc(S(=O)(=O)Nc3ccccn3)cc2)cc1`, the Potency is reported as “inactive”.
For `O=[N+]([O-])c1cnc(Sc2ccncn2)s1`, the Potency was inconclusive: 5.62 µM [activator, single point].
For `O=C(O)CCc1ccc(-c2ccc(Cl)cc2)n1-c1cccc(C(F)(F)F)c1`, the Potency was inconclusive: 22.4 µM [activator, single point].
With `N#Cc1c(NC(=O)CSc2ncnc3sccc23)oc(-c2ccco2)c1-c1ccco1` the Potency was active: 10 µM.
For `NS(=O)(=O)c1ccc(NC(=S)NC(=O)c2cccc(Br)c2)cc1`, the Potency was inconclusive: 1.58 µM [activator, full curve, poor fit].
With `COc1ccc(CCCc2nnc(SCC(=O)Nc3ccc(Cl)cc3)o2)cc1` the Potency was “inactive”.
In the case of `CN(Cc1ccc(F)cc1)C(=O)c1cccc(S(=O)(=O)N2CCN(Cc3ccccc3)CC2)c1`, the Potency is reported as “inactive”.
For `N#Cc1nc(-c2ccc(F)cc2)oc1NCc1ccco1`, the Potency was inconclusive: 8.91 µM [activator, partial curve, poor fit].
For `COc1ccc(Br)cc1CNC(=O)c1ccc(-n2c(C)cc3c2CCC(C)C3)cc1` (stereo not given), the Potency was inconclusive: 31.6 µM [activator, single point].
For `Cc1cccc(Nc2c([N+](=O)[O-])c(=O)oc3ccccc23)c1`, the Potency was inconclusive: 22.4 µM [activator, single point].
With `O=C(Nc1ccc(N2CCCCC2)cc1)c1ccc([N+](=O)[O-])o1` the Potency was inconclusive: 3.55 µM [activator, single point].
For `Cc1ccc(C)c2sc(N3CCN(C(=O)c4ccc([N+](=O)[O-])o4)CC3)nc12`, the Potency was inconclusive: 2.24 µM [activator, full curve, poor fit].

Source: PubChem BioAssay AID624171 (National Center for Advancing Translational Sciences (NCATS), 2012)
Potency is read from the fitted curve at half-maximal effect; tags tell the direction and shape of the fitted curve.
